# Experimental data taken from the supplement of paper PMC8728848.
# This is one part of the list.
# B1: FBG3 (Homo sapiens), Q9H4M3 (protein)
# chain: MAVGNINELPENILLELFTHVPARQLLLNCRLVCSLWRDLIDLVTLWKRKCLREGFITEDWDQPVADWKIFYFLRSLHRNLLHNPCAEEGFEFWSLDVNGGDEWKVEDLSRDQRKEFPNDQVKKYFVTSYYTCLKSQVVDLKAEGYWEELMDTTRPDIEVKDWFAARPDCGSKYQLCVQLLSSAHAPLGTFQPDPATIQQKSDAKWREVSHTFSNYPPGVRYIWFQHGGVDTHYWAGWYGPRVTNSSITIGPPLP
# Columns and labels:
# Test in all cases: glycan array binding signal (z-score within array); higher = stronger binding
# Conditions in all cases: glycan notation: IUPAC condensed, linker removed
# [1] = biological target: Fuc(a1-3)[Gal3S(b1-4)]Glc6S
# Procedure, shortened: (§1)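 Glycan array data were curated from 3228 arrays in the Consortium for Functional Glycomics database and kept only where the protein sequence was available. Glycan names were converted to IUPAC-condensed notation, and columns mapping to the same glycan were averaged. The binding signal is a within-array Z-score, averaged across arrays of the same protein sequence at different concentrations or buffers and across linkers. Negative Z-scores can be read as non-binding.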
# [2] = biological target: Fuc(a1-3)[Gal3S(b1-4)]GlcNAc
# Procedure, shortened: as §1
# [3] = biological target: Fuc(a1-3)[Gal3S(b1-4)]GlcNAc6S
# Procedure, shortened: as §1
# [4] = biological target: Fuc(a1-3)[GalNAc(b1-4)]Gal(b1-4)GlcNAc
# Procedure, shortened: as §1
# [5] = biological target: Fuc(a1-4)GlcNAc
# Procedure, shortened: as §1
# [6] = biological target: Fuc(b1-3)GlcNAc
# Procedure, shortened: as §1
# [7] = biological target: Gal(a1-2)Gal
# Procedure, shortened: as §1
# [8] = biological target: Gal(a1-3)Gal
# Procedure, shortened: as §1
# [9] = biological target: Gal(a1-3)Gal(b1-3)Glc
# Procedure, shortened: as §1
# [10] = biological target: Gal(a1-3)Gal(b1-3)GlcNAc
# Procedure, shortened: as §1
# [11] = biological target: Gal(a1-3)Gal(b1-4)Glc
# Procedure, shortened: as §1
# [12] = biological target: Gal(a1-3)Gal(b1-4)GlcNAc
# Procedure, shortened: as §1
# [13] = biological target: Gal(a1-3)Gal(b1-4)[Fuc(a1-3)]GalNAc
# Procedure, shortened: as §1
# [14] = biological target: Gal(a1-3)Gal(b1-4)[Fuc(a1-3)]GlcNAc
# Procedure, shortened: as §1
# [15] = biological target: Gal(a1-3)GalNAc
# Procedure, shortened: as §1
# [16] = biological target: Gal(a1-3)GlcNAc
# Procedure, shortened: as §1
# [17] = biological target: Gal(a1-3)[Gal(a1-4)]Gal(b1-4)GlcNAc
# Procedure, shortened: as §1
# [18] = biological target: Gal(a1-4)Gal(b1-4)Gal
# Procedure, shortened: as §1
# [19] = biological target: Gal(a1-4)Gal(b1-4)GalNAc
# Procedure, shortened: as §1
# [20] = biological target: Gal(a1-4)Gal(b1-4)Glc
# Procedure, shortened: as §1
# [21] = biological target: Gal(a1-4)Gal(b1-4)GlcNAc
# Procedure, shortened: as §1
# [22] = biological target: Gal(a1-4)GlcNAc
# Procedure, shortened: as §1
# [23] = biological target: Gal(a1-6)Glc
# Procedure, shortened: as §1
# [24] = biological target: Gal(b1-2)Gal
# Procedure, shortened: as §1
# [25] = biological target: Gal(b1-3)Gal
# Procedure, shortened: as §1
# [26] = biological target: Gal(b1-3)GalNAc
# Procedure, shortened: as §1
# [27] = biological target: Gal(b1-3)GalNAc(b1-3)Gal(a1-4)Gal(b1-4)Glc
# Procedure, shortened: as §1
# [28] = biological target: Gal(b1-3)GalNAc(b1-3)Gal(b1-4)Glc
# Procedure, shortened: as §1
# [29] = biological target: Gal(b1-3)GalNAc(b1-3)Gal(b1-4)GlcNAc
# Procedure, shortened: as §1
# [30] = biological target: Gal(b1-3)GalNAc(b1-4)Gal(b1-4)Glc
# Procedure, shortened: as §1
# [31] = biological target: Gal(b1-3)GalNAc(b1-4)[Neu5Ac(a2-3)]Gal(b1-4)Glc
# Procedure, shortened: as §1
# [32] = biological target: Gal(b1-3)GlcNAc
# Procedure, shortened: as §1
# [33] = biological target: Gal(b1-3)GlcNAc(b1-3)Gal(b1-3)GlcNAc
# Procedure, shortened: as §1
# [34] = biological target: Gal(b1-3)GlcNAc(b1-3)Gal(b1-4)Glc
# Procedure, shortened: as §1
# [35] = biological target: Gal(b1-3)[Fuc(a1-4)]GlcNAc
# Procedure, shortened: as §1
# [36] = biological target: Gal(b1-3)[Fuc(a1-4)]GlcNAc(b1-3)Gal(b1-3)[Fuc(a1-4)]GlcNAc
# Procedure, shortened: as §1
# [37] = biological target: Gal(b1-3)[Fuc(a1-4)]GlcNAc(b1-3)Gal(b1-4)GlcNAc
# Procedure, shortened: as §1
# [38] = biological target: Gal(b1-3)[Fuc(a1-4)]GlcNAc(b1-3)Gal(b1-4)[Fuc(a1-3)]GlcNAc
# Procedure, shortened: as §1
# [39] = biological target: Gal(b1-3)[GlcNAc(b1-6)]GalNAc
# Procedure, shortened: as §1
# [40] = biological target: Gal(b1-3)[GlcNAc(b1-6)]GlcNAc
# Procedure, shortened: as §1
# [41] = biological target: Gal(b1-3)[Neu5Ac(a2-6)]GalNAc
# Procedure, shortened: as §1
# [42] = biological target: Gal(b1-3)[Neu5Ac(a2-6)]GlcNAc
# Procedure, shortened: as §1
# [43] = biological target: Gal(b1-3)[Neu5Ac(a2-6)]GlcNAc(a1-4)Gal(b1-4)Glc
# Procedure, shortened: as §1
# [44] = biological target: Gal(b1-3)[Neu5Ac(a2-6)]GlcNAc(b1-4)Gal(b1-4)Glc
# Procedure, shortened: as §1
# [45] = biological target: Gal(b1-3)[Neu5Ac(b2-6)]GalNAc
# Procedure, shortened: as §1
binder,measurement,setting,value
B1,glycan array binding signal (z-score),[1],0.422
same,glycan array binding signal (z-score),[2],-0.396
same,glycan array binding signal (z-score),[3],1.94
same,glycan array binding signal (z-score),[4],-0.359
same,glycan array binding signal (z-score),[5],-0.244
same,glycan array binding signal (z-score),[6],0.619
same,glycan array binding signal (z-score),[7],-0.197
same,glycan array binding signal (z-score),[8],-0.229
same,glycan array binding signal (z-score),[9],0.264
same,glycan array binding signal (z-score),[10],-0.548
same,glycan array binding signal (z-score),[11],-0.57
same,glycan array binding signal (z-score),[12],-0.291
same,glycan array binding signal (z-score),[13],0.081
same,glycan array binding signal (z-score),[14],-0.174
same,glycan array binding signal (z-score),[15],-0.355
same,glycan array binding signal (z-score),[16],-0.198
same,glycan array binding signal (z-score),[17],-0.433
same,glycan array binding signal (z-score),[18],-0.387
same,glycan array binding signal (z-score),[19],-0.248
same,glycan array binding signal (z-score),[20],-0.153
same,glycan array binding signal (z-score),[21],-0.338
same,glycan array binding signal (z-score),[22],-0.024
same,glycan array binding signal (z-score),[23],1.32
same,glycan array binding signal (z-score),[24],0.09
same,glycan array binding signal (z-score),[25],-0.052
same,glycan array binding signal (z-score),[26],0.136
same,glycan array binding signal (z-score),[27],-0.529
same,glycan array binding signal (z-score),[28],-0.288
same,glycan array binding signal (z-score),[29],-0.569
same,glycan array binding signal (z-score),[30],-0.351
same,glycan array binding signal (z-score),[31],-0.368
same,glycan array binding signal (z-score),[32],-0.353
same,glycan array binding signal (z-score),[33],-0.398
same,glycan array binding signal (z-score),[34],-0.183
same,glycan array binding signal (z-score),[35],-0.387
same,glycan array binding signal (z-score),[36],-0.007
same,glycan array binding signal (z-score),[37],-0.363
same,glycan array binding signal (z-score),[38],-0.499
same,glycan array binding signal (z-score),[39],-0.256
same,glycan array binding signal (z-score),[40],-0.582
same,glycan array binding signal (z-score),[41],0.434
same,glycan array binding signal (z-score),[42],-0.145
same,glycan array binding signal (z-score),[43],-0.377
same,glycan array binding signal (z-score),[44],-0.197
same,glycan array binding signal (z-score),[45],-0.325
